# Data reported in paper PMC10668032.
# This is one part of the list. At the low end of the ranking, values are background and their order means little.
# Target: SIX1-Q177R homeodomain (UniProt Q15475)
# Experiment: universal protein binding microarray
# Settings: Universal all-10-mer PBM (8x60K, AMADID 030236), 300 nM GST-tagged protein, Alexa Fluor 488 anti-GST; buffer, salt, pH and temperature not stated; high values mean tight binding; most listed sequences are background and not binding sites; double strand, one strand shown
row,Sequence,binding signal
1,AGAGCGGC,-0.124 E-score
2,TAAAGACA,0.147 E-score
3,AACCTGAC,-0.0626 E-score
4,GGCGTTTA,-0.0256 E-score
5,ACTCGTCT,-0.0328 E-score
6,AAACGGAT,0.051 E-score
7,AGAACCAG,-0.0378 E-score
8,ATTACCGC,-0.219 E-score
9,CGTCCTTA,-0.00731 E-score
10,CTGAACCC,0.187 E-score
11,ACCTCGAA,-0.0704 E-score
12,CTGCCAGC,-0.266 E-score
13,GCATGCCC,-0.157 E-score
14,GTGTAATA,0.451 E-score
15,ATACGATC,-0.057 E-score
16,CTAAGCCA,-0.205 E-score
17,CACGTGTA,0.4 E-score
18,ACACGCCG,0.404 E-score
19,AGCATTAT,-0.247 E-score
20,CTTATATA,-0.139 E-score
21,AGCTTAAT,-0.138 E-score
22,ATGGACTA,-0.236 E-score

row,Sequence,binding signal
1,AAGAATAA,-0.0242 E-score
2,TAGAGCCA,-0.128 E-score
3,ACGATCAT,-0.232 E-score
4,CGGACATA,0.0379 E-score
5,GCCCGTCC,0.0148 E-score
6,GGTTTATA,0.0753 E-score
7,CGTTATCA,-0.0947 E-score
8,AATACCTG,-0.12 E-score
9,CGTTTGAC,-0.0265 E-score
10,CCGTGGCG,-0.0351 E-score
11,CCATAGAC,-0.0169 E-score
12,AGTAAGGC,-0.144 E-score
13,TACTTTGA,-0.0537 E-score
14,AATACATT,-0.177 E-score
15,GTCTGCGA,-0.0828 E-score
16,AGTTAGTA,-0.0843 E-score
17,TCATCACA,-0.013 E-score
18,GGCATCGA,-0.175 E-score
19,ATGATTCG,-0.118 E-score
20,CTTAACGA,-0.092 E-score
21,GACGATAC,0.205 E-score
22,GCCCACAA,-0.225 E-score

row,Sequence,binding signal
1,CTTATCTA,-0.0791 E-score
2,AGTTTTTC,-0.123 E-score
3,GCGGGTCC,0.0506 E-score
4,ATTGAGAC,0.0498 E-score
5,CAGTGTCG,0.444 E-score
6,AGCAAACC,0.037 E-score
7,GGAGCTGA,-0.0693 E-score
8,CCTTGAAC,-0.0734 E-score
9,ACTACTTG,0.144 E-score
10,GCGGCTGA,-0.24 E-score
11,ACAGGGTC,0.0966 E-score
12,CTTTCATC,-0.198 E-score
13,ACGTGTTC,0.314 E-score
14,CGGGGGCC,0.0843 E-score
15,GACTATCC,-0.0197 E-score
16,CTTTACCA,-0.0295 E-score
17,GCGCTGCC,0.0245 E-score
18,CCCCCGAC,0.272 E-score
19,ATCGGTAC,-0.091 E-score
20,TCACGTGA,-0.095 E-score
21,ACCCATCT,0.105 E-score
22,CGCGTGAA,0.0894 E-score

row,Sequence,binding signal
1,CTGATGGA,-0.213 E-score
2,AACAACGT,-0.153 E-score
3,ATAGCACC,0.205 E-score
4,GGGGTGAC,0.16 E-score
5,ATAGGGGG,0.259 E-score
6,ATCGCCAT,-0.181 E-score
7,AATCTACA,0.22 E-score
8,AACTACTC,0.106 E-score
9,TAACAGGA,0.103 E-score
10,ACTTATAT,-0.19 E-score
11,ACCGCCAA,0.0346 E-score
12,GTCAGAGA,-0.104 E-score
13,ACCTGAAC,0.0806 E-score
14,CAGATTGC,-0.169 E-score
15,GTGGACTA,0.139 E-score
16,CCTATGAA,-0.18 E-score
17,TGTCCACA,0.205 E-score
18,ACGCTAGA,0.00153 E-score
19,TTACCGAA,0.00217 E-score
20,GCAACTAC,0.0937 E-score
